In PubChem BioAssay AID1159614 (National Center for Advancing Translational Sciences (NCATS), 2016):
The campaign covered roughly 45,000 compounds. About 65 (0.1%) were called active. The call rests on the fitted dose curve; in most records, active means well fitted activation curve with a large enough effect; inconclusive means small, poorly fitted or top-dose-only effect; inactive means no such curve, though single readings can be large or run the other way. This is one part of the list.

Target: Galactocerebrosidase (Homo sapiens) (UniProt P54803)
Chain of UniProt P54803 (P54803 whole entry, looked up): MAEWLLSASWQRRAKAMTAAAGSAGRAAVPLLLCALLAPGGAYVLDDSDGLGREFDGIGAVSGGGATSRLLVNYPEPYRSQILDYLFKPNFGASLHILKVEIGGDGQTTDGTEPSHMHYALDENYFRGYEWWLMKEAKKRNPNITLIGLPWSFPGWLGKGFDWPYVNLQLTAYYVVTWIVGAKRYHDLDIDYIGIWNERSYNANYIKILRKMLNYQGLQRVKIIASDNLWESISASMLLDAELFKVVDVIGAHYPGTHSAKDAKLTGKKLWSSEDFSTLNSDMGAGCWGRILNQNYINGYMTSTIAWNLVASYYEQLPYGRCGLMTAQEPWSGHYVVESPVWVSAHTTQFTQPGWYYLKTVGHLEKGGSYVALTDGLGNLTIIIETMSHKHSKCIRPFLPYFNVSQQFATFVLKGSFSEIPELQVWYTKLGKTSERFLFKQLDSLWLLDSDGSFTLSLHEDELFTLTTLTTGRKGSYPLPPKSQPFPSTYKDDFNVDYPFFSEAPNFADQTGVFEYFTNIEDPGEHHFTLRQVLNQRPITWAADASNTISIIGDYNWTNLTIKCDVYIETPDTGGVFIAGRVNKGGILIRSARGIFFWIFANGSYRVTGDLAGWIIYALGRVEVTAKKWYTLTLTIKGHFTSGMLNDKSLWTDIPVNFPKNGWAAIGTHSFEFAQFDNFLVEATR
Experiment: A Novel Cell-Based Assay to Identify Small Molecules for B -Galactocerebrosidase; further: 0% is about no effect; nearly all actives have a fitted effect of over 65% in size
Conditions: 145M-Twi-hGALC-G270D cells (Twitcher mouse brain line with human GALC G270D), HMU-beta-Gal fluorescence, 48 h; series mostly up to 57.5 µM; activation: at the top concentration
Procedure, shortened: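 Live 145M-Twi cells (Twitcher mouse brain-derived, GALC-null) stably expressing human GALC-G270D, with a wild-type GALC line, were compound-treated. Residual GALC activity was then read as fluorescence from 0.1 mM final HMU-β-gal at pH 5.2; higher signal means activation.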

Row | SMILES | activation
1 | CCCn1ccc2c(OCC(=O)Nc3ccc(C(F)(F)F)cc3)cccc2c1=O | inactive: -8.34%
2 | CC1(CN2CCC(n3c(=O)[nH]c4ccccc43)CC2)OCc2ccccc2-n2cccc21 (stereo not given) | inactive: -45.5%
3 | COc1ccc(OC)c(-n2cnc3cc(C(=O)NCCc4ccccc4)ccc32)c1 | inactive: -16.2%
4 | Cc1ccc(CN(C(=O)c2ccc([N+](=O)[O-])cc2)c2ccccn2)cc1 | inactive: -9.22%
5 | Cc1cc(Nc2cccc(C(F)(F)F)c2)nc2ccc(NC(=O)c3cncc(Br)c3)cc12 | inactive: -16.7%
6 | CCOc1ccccc1N(CC)C(=O)c1cc2c(=O)n(CC)c3ccccc3c2s1 | inactive: -22.4%
7 | CCOC(=O)c1noc2nc(C)n(CC(=O)Nc3ccc(Br)cc3C)c(=O)c12 | inactive: -12.5%
8 | CC1=C(C(=O)Nc2ccc(C)cc2C)C(c2ccc[nH]2)n2ncnc2N1 (stereo not given) | inactive: -22.6%
9 | CSc1nnc2c(n1)OC(c1cccc(O)c1Cl)Nc1ccccc1-2 (stereo not given) | inactive: -22.3%
10 | CC(C(=O)NCc1ccc(Cl)cc1)n1ccc2cc(S(=O)(=O)N3CCCC3)ccc21 (stereo not given) | inactive: -14.8%
11 | N#Cc1cc2c(=O)n3ccccc3nc2n(-c2nnc(SCc3ccccc3F)s2)c1=O | inactive: 3.81%
12 | Cc1ccc(OCC(=O)Nc2ccccc2C(=O)OCc2cc(=O)n3c(C)csc3n2)cc1 | inactive: -6.04%
13 | Cc1ccc(-c2nnc3ccccc3c2C(=O)Nc2cccc(C(F)(F)F)c2)cc1 | inactive: 15.2%
14 | CC(C)OC(=O)c1c(NC(=O)c2cc3nc(-c4ccccc4)cc(C(F)(F)F)n3n2)sc2c1CCCC2 | inactive: -8.45%
15 | CCc1ccc(CNC(=O)c2cnc3sc(N(CC)CC)nn3c2=O)cc1 | inactive: -2.63%
16 | O=C(Cn1ncc2c3ccccc3n(Cc3ccc(Cl)cc3)c2c1=O)NC1CCCCCC1 | inactive: -11.3%
17 | COc1ccc(CCNC(=O)CN2C(=O)COc3ccc(S(=O)(=O)N4CCCCCC4)cc32)cc1OC | inactive: -15.1%
18 | COCCCNC(=O)Cn1c(=O)n(-c2ccc(Cl)cc2)c(=O)c2c3c(sc21)CCCCC3 | inactive: -9.17%
19 | CCOC(=O)C1CCCN(S(=O)(=O)c2ccc3c(c2)N(C)C(=O)CC(=O)N3C)C1 (stereo not given) | inactive: -11.7%
20 | CCCCC(CC)Cn1c(Oc2ccccc2)nc2c1c(=O)n(C)c(=O)n2C (stereo not given) | inactive: 1.97%
21 | COCCCNc1ncnc2c1nnn2C | inactive: 1.67%
22 | CCn1c(SCC(=O)Nc2ccc(C)c(C)c2)nnc1-c1nonc1NC(C)=O | inactive: -5.73%
23 | CC(C)c1cnc2c(c1SCC(=O)Nc1cccc([N+](=O)[O-])c1)c(=O)n(C)c(=O)n2C | inactive: -9.68%
24 | Cc1ccc(Cl)cc1N1CCN(S(=O)(=O)c2ccc3c(c2)CC(=O)N3C)CC1 | inactive: -19.5%

Row | SMILES | activation
25 | Cc1ccc(NC(=O)c2ccc(CN3CC(=O)N4CCCCC4C3=O)cc2)cc1C (stereo not given) | inactive: -39.2%
26 | CCOc1ccc(-n2c(=O)c3sc4ccccc4c3n(Cc3ccc(F)cc3)c2=O)cc1 | inactive: -7.85%
27 | CCc1ccccc1NC(=O)C(=O)NCCc1sc(-c2cccc(C)c2)nc1C | inactive: 11%
28 | Cc1ccc(O)c(NC(=O)c2nc3nc(C)cc(C(F)F)n3n2)c1 | inactive: -6.01%
29 | COc1cccc(N2CCN(C(=O)c3nc(-c4ccc(Cl)cc4)n4c3CCCCC4)CC2)c1 | inactive: -15.1%
30 | COCCn1c(SCC(=O)c2c[nH]c3ccccc23)nc2cc(C(=O)NCC(C)C)ccc2c1=O | inactive: -1.57%
31 | O=c1oc2ccc3ccccc3c2cc1-c1nnc(Nc2cc(C(F)(F)F)ccc2Cl)s1 | inactive: -6.27%
32 | Cc1[nH]c2c(C)cccc2c1CCNC(=O)c1cc2ccccc2oc1=O | inactive: -13.3%
33 | Cc1ccc(N(CC(=O)Nc2ccc(OC(F)(F)F)cc2)S(=O)(=O)c2c(C)noc2C)cc1 | inactive: -9.52%
34 | CCOC(=O)c1cc2c(=O)n3ccccc3nc2n(CC2CCCO2)c1=NC(=O)c1cc(C)cc(C)c1 (stereo not given) | inactive: -10.9%
35 | COc1ccc(CC(=O)Nc2sc3c(c2C(=O)Nc2ccc(C)cc2)CCCCC3)cc1 | inactive: -8.94%
36 | CCc1cccc(C)c1Nc1c(-c2cccc(O)c2)nc2sccn12 | inactive: -25.4%
37 | Cc1[nH]c2ccccc2c1C1(O)C(=O)N(Cc2ccc(Cl)cc2)c2ccccc21 (stereo not given) | inactive: -22.8%
38 | O=S(=O)(c1cccc(Cl)c1)c1nnn2c1nc(NC1CCCC1)c1sccc12 | inactive: -15.8%
39 | COc1cc(NC(=O)CSc2nc3nc(C)c(Cc4ccccc4)c(C)n3n2)cc(OC)c1OC | inactive: 22.6%
40 | Cc1nc(N2CCCC2)ncc1C(=O)NCc1ccccc1Cl | inactive: -9.87%
41 | CCc1nnc2n1N(C(C)=O)C(c1ccc(C(C)(C)C)cc1)=C(C(C)=O)S2 | inactive: -17.1%
42 | CCc1ccc(CNC(=O)c2cc3c(s2)-c2ccccc2OC3)cc1 | inactive: 3.81%
43 | COC(=O)c1ccc(NC(=O)C2CCN(S(=O)(=O)c3ccc4c(c3)CCCN4C(C)=O)CC2)cc1 | inactive: -19.2%
44 | CN(CC(=O)Nc1ccc(Br)cc1)S(=O)(=O)c1cccc2nsnc12 | inactive: -15.2%
45 | COc1ccc(NC(=O)C2CCN(C(=O)c3sc4nc[nH]c(=O)c4c3C)CC2)cc1Cl | inactive: 1.66%
46 | COc1ccc(NC(=O)c2oc3ccccc3c2NC(=O)c2cc(C)cc(C)c2)c(OC)c1 | inactive: 4.19%
47 | CCOC(=O)C1CCN(c2nc3ccccc3nc2Cl)CC1 | inactive: -7.53%
48 | COc1ccccc1NC(=O)CSc1nc2c(oc3ccccc32)c(=O)n1-c1ccccc1F | inactive: -5.22%

Row | SMILES | activation
49 | Cc1cc2oc(C(=O)N(Cc3ccc(N(C)C)cc3)CC3CCCO3)c(C)c2cc1Cl (stereo not given) | inactive: -4.84%
50 | O=C(O)c1ccc(OCCN2CCCCC2)cc1 | inactive: -7.17%
51 | CN1C(=O)Cc2cc(S(=O)(=O)CCC(=O)N3CCN(c4ccc(Cl)cc4)CC3)ccc21 | inactive: -19.8%
52 | C=Cc1ccc(Cn2c(C)c(CNCc3ccc(SC)cc3)c(C(=O)O)c2C)cc1 | inactive: 0.306%
53 | CN(Cc1ccccc1)c1ccc(-c2nc(-c3ccccc3)no2)cc1[N+](=O)[O-] | inactive: -39.7%
54 | Cc1cc(C)c(NC(=O)C(=O)NCC(c2cccnc2)N2CCN(c3ccccc3F)CC2)c(C)c1 (stereo not given) | inactive: -16%
55 | CCc1cccc(NC(=O)c2cc3c(s2)-c2ccccc2OC3)c1 | inactive: 11.1%
56 | CC(=O)Nc1cccc(NC(=O)CSc2nccn2C2CCCC2)c1 | inactive: -16%
57 | O=C(CN1C(=O)c2cccc3cccc1c23)Nc1cccc(F)c1 | inactive: -14.8%
58 | CCC(Sc1ncc(S(=O)(=O)c2ccc(Cl)cc2)c(=O)[nH]1)C(=O)Nc1ccc(OC)cc1 (stereo not given) | inactive: -19.5%
59 | COc1ccc(Cl)cc1NC(=O)CSc1nnc2[nH]c(=O)cc(-c3ccccc3)n12 | inactive: -12.7%
60 | Cc1ccc2[nH]c(=O)c3cc(C(=O)N(CCCOC(C)C)Cc4ccco4)sc3c2c1 | inactive: -37.3%
61 | COC(=O)c1ccc2c(=O)n3nc(Nc4cc(OC)ccc4OC)sc3nc2c1 | inactive: -11.5%
62 | Cc1ccc(OCc2nc(C#N)c(NCCc3ccccc3)o2)cc1 | inactive: -5%
63 | Cc1ccccc1NC(=O)CSC1=Nc2ccccc2C2=NC(Cc3ccccc3)C(=O)N12 (stereo not given) | inactive: -9.79%
64 | O=C(NCc1nc2ccccc2n1Cc1ccccc1Cl)c1ccccc1 | inactive: -18.5%
65 | COC(=O)c1ccccc1NC(=O)c1oc2ccc3c(c2c1C)C(=O)CC(C)(C)O3 | inactive: -2.91%
66 | COc1ccc(-c2nn(-c3ccc(F)cc3)c3c2cnc2ccc(F)cc23)cc1OC | inactive: -14.7%
67 | CCCc1nn2c(=O)cc(COC(=O)C3CCCCC3)nc2s1 | inactive: -23.5%
68 | Cc1ccc(NC(=O)CCCn2c(=O)c3cccn3c3ccccc32)cc1Cl | inactive: -2.39%
69 | COc1ccc(OCC(=O)Nc2ccc(Cl)c(-c3nc4ncccc4o3)c2)cc1 | inactive: 2.43%
70 | O=C1CN(C(=O)COc2ccccc2)C(c2ccc(F)cc2)c2cc(Br)ccc2N1 (stereo not given) | inactive: -16.9%
71 | COC(=O)c1cc2sc(Cl)cc2n1CC(=O)Nc1cc(OC)cc(OC)c1 | inactive: -13%
72 | CCN(CCCNC(=O)c1cc(Nc2ccc(OC)cc2)nc2ccccc12)c1cccc(C)c1 | inactive: -0.149%

Row | SMILES | activation
73 | O=C(Nc1ccccc1F)c1nc(SCc2ccccc2F)ncc1Cl | inactive: -12.1%
74 | Cc1ccc(Cl)cc1NC(=O)Nc1cn(CC(C)C)c(=O)c2ccccc12 | inactive: -9.12%
75 | Cc1ccccc1CN1C(=O)c2ccccc2Sc2ccc(C(=O)NCc3ccccc3)cc21 | inactive: -6.93%
76 | COc1cccc(CNC(=O)c2ccc3c(c2)N(Cc2ccc(F)cc2Cl)C(=O)c2ccccc2S3)c1 | inactive: -23.7%
77 | CCOc1ccc(CCNC(=O)Cn2ccc3cc(S(=O)(=O)N4CCCCC4)ccc32)cc1 | inactive: -15.1%
78 | COCCn1c(SCC(=O)c2c(C)[nH]c3ccccc23)nc2cc(C(=O)NC(C)C)ccc2c1=O | inactive: -11.9%
79 | Cc1ccc2c(C)c(C(=O)NCC(c3ccc(Cl)cc3)N3CCOCC3)oc2c1 (stereo not given) | inactive: -9.88%
80 | Cc1ccc(NC(=O)NC(C)c2c(-n3cccc3)sc(C)c2C)cc1F (stereo not given) | inactive: -9.46%
81 | COc1cc(NC(=O)C2CCN(c3nnc(C)c4c(C)n(-c5ccccc5)nc34)CC2)cc(OC)c1 | inactive: 6.43%
82 | Cc1ccc(-n2c(=O)[nH]c3cc(C(=O)NCCc4ccccc4)ccc3c2=O)cc1 | inactive: 0.801%
83 | COc1ccc(-n2nc(C(=O)Nc3ccc(C)cn3)c3c4ccccc4n(C)c3c2=O)cc1Cl | inactive: -9.66%
84 | Cc1ccc(-c2nc(S(=O)(=O)c3ccc(C)cc3)c(SCC(=O)c3ccccc3)o2)cc1 | inactive: -31.8%
85 | NC1(c2ccc(-c3nc4ccn5c(=O)[nH]nc5c4cc3-c3ccccc3)cc2)CCC1 | inactive: -2.75%
86 | Cc1cccc(C)c1NC(=O)Cn1c(=O)n(Cc2ccccc2Cl)c(=O)c2cccnc21 | inactive: -8.75%
87 | CCN(C(=O)CSc1nc2ccccc2n1Cc1ccccc1C#N)c1ccccc1 | inactive: -8.72%
88 | CCOC(=O)c1ccc(NC(=O)CSc2nnc(-c3ccncc3)n2-c2ccccc2)cc1 | inactive: -16.7%
89 | CCOc1ccc(CNC(=O)c2cnc3c(C)cccn3c2=O)cc1 | inactive: -15.4%
90 | CCOC(=O)c1ccccc1NC(=O)c1cnn(-c2ccc(OC)cc2)c1C1CCN(C(=O)OC(C)(C)C)CC1 | inactive: 3.42%
91 | Cc1ccc2c(c1)c(=O)c1ccccc1n2CCCC(=O)Nc1ccc(Cl)cc1C | inactive: -9.59%
92 | CCOC(=O)c1cnc(NCc2ccc(Cl)cc2)c2ccccc12 | inactive: -11%
93 | O=C(Cc1ccc(F)cc1)NCCc1csc(-c2ccc(C(F)(F)F)cc2)n1 | inactive: -29.7%
94 | Cc1ccc2[nH]c3c(=O)n(CC(=O)N(C)Cc4ccccc4)ncc3c2c1 | inactive: -6.96%
95 | Cn1c(CN2CCCCC2)nc2cc(NC(=O)c3ccc(Cl)cc3)ccc21 | inactive: -8.61%
